# Reference: patent US20100087406A1, “INDUCTION OF INNATE IMMUNITY BY VITAMIN D3 AND ITS ANALOGS” (CEDARS-SINAI MEDICAL CENTER, priority 2004, published 2010)
# Tests used:
# CAMP [1] = experiment: Induction of CAMP mRNA expression in U937 cells (QRT-PCR, RT-PCR, Northern blot); format: cell-based, human; conditions: listed as Vitamin D3
# CAMP [2] = conditions: purified monocytes, neutrophils, cell lines from lung and head and neck squamous cell carcinomas; cited from earlier work
# defB2 = conditions: purified monocytes, neutrophils, cell lines from lung and head and neck squamous cell carcinomas; cited from earlier work
# CAMP [3] = experiment: Induction of CAMP mRNA expression in HL60 cells (Northern blot)
# CAMP [4] = experiment: Induction of CAMP mRNA in normal human BM-derived macrophages (QRT-PCR); conditions: BM Mφ, increasing concentration, listed as Vitamin D3
# CAMP [5] = experiment: Induction of CAMP mRNA in bone marrow cells of an AML patient (QRT-PCR); conditions: AML BM cells, 24 h, listed as Vitamin D3
smiles,measurement,setting,value
"C=C1/C(=C\C=C2/CCC[C@]3(C)[C@@H]([C@H](C)CCCC(C)(C)O)CC[C@@H]23)C[C@@H](O)C[C@@H]1O [1,25(OH)2D3, 1,25-dihydroxyvitamin D3]","strength of CAMP induction, U937 compared with HL60","CAMP [1]; 1×10^−7 M, Northern blot (FIG. 2A)",substantially higher in the U937 cell line
same,dose responsiveness of CAMP induction,"CAMP [1]; U937, 1×10^−6 M to 1×10^−9 M, 24 h, Northern blot","strong, Vitamin D3 dose-dependent induction"
same,induction of CAMP gene expression in the presence of CHX,"CAMP [1]; U937, 1×10^−7 M, 20 μg/ml cyclohexamide, 6 and 9 hours, Northern blot",not impaired by the presence of CHX
same,induction of CAMP mRNA,"CAMP [1]; U937, 1,25[OH]2D3 1×10^−7 M or TPA 5 ng/ml, 1, 3 or 5 days, Northern blot",observed only in the presence of Vitamin D3
same,induction of CAMP gene,CAMP [2],observed induction of both CAMP and defB2 genes
same,induction of defB2 gene,defB2,observed induction of both CAMP and defB2 genes
same,induction of CAMP mRNA expression,"CAMP [3]; HL60, 1×10^−6 M to 1×10^−9 M, 24 h, Northern blot",Moderate induction
same,time at which induction of the CAMP gene occurred,"CAMP [3]; HL60, 1×10^−7 M, measured at 0, 1, 3, 5 days, listed as Vitamin D3",1 days
same,induction of CAMP mRNA,"CAMP [3]; HL-60, 1,25[OH]2D3 1×10^−7 M or TPA 5 ng/ml, 1, 3 or 5 days, Northern blot, listed as Vitamin D3",observed only in the presence of Vitamin D3
same,induction of CAMP mRNA (CAMP/18S),CAMP [4],induced CAMP mRNA expression in a dose-dependent manner in every cell type tested
same,dose dependence of CAMP mRNA induction,CAMP [5],induced CAMP mRNA expression in a dose-dependent manner
